# Assay results as given in PubChem BioAssay AID588855 (National Center for Advancing Translational Sciences (NCATS), 2011).
# “And” between values parts separate entries of the source, which are not always exact repeats. Identical values can stand only once. Screen size: about 410,000 compounds; about 5,000 (1.2%) were called active. Inconclusive means that the source gave no clear call. Such entries were picked first, then a sample of the others. Calls follow the shape of the dose curve; as a rule, active = well fitted inhibition curve with a large enough effect; inconclusive = small, poorly fitted or top-dose-only effect; inactive = no such curve, though single readings can be large or run the other way. Potencies of inconclusive entries are doubtful fits and often do not repeat.
# Assay: qHTS for Inhibitors of TGF-b; also: nearly all actives have a fitted effect of over 65% in size
# Settings: HepG2 CAGA-GFP TGF-b/SMAD3 reporter, GFP fluorescence, 18 h, TGF-beta stimulated, 500 pg/mL final; series mostly up to 46.1 µM; activity, negative = inhibition: at the top concentration
# Procedure, shortened: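 TGF-beta reporter screen: HEPG2 CAGA-GFP, 1% FBS, 500 pg/mL TGF-beta final, 18 h; per-cell GFP summed per well; curves fitted and categorized by class.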
# % is scaled to controls: 0 for no effect and ±100 for the full control effect; potency is read from the fitted curve at half-maximal effect; tags tell the direction and shape of the fitted curve.
SMILES,Potency,"activity, negative = inhibition"
COc1ccc(/C=C/C(=O)NCc2cnn(C)c2C)cc1COc1ccc(Br)cc1,"inconclusive: 14.1 µM [inhibitor, single point]",–
COc1ccc(C)c2sc(N(Cc3cccnc3)C(=O)c3cccs3)nc12,"inconclusive: 1.26 µM [inhibitor, full curve, poor fit]",–
CCN1CCc2c(sc(-n3cccc3)c2C(C)NC(=O)Nc2ccc(C(=O)OC)cc2)C1 (stereo not given),active: 10 µM,–
COc1cccc(NC(=O)Cn2c(=O)n(CCC(=O)NCc3ccccc3OC)c(=O)c3ccccc32)c1,"inconclusive: 35.5 µM [inhibitor, partial curve, poor fit]",–
CCc1cc(C)cc(OCCOc2ccccc2/C=N/NC(C)=O)c1,"inconclusive: 35.5 µM [inhibitor, single point]",–
COc1ccccc1NS(=O)(=O)c1ccc(N/N=C/c2ccccc2OCC(=O)O)c([N+](=O)[O-])c1,"inconclusive: 8.91 µM [inhibitor, partial curve, poor fit]",–
CCN(CC)CCOC(=O)c1ccc(NC(=O)CCCN2C(=O)/C(=C/c3cccs3)SC2=S)cc1,"inconclusive: 35.5 µM [inhibitor, single point]",–
CC(=O)Nc1ccc2nc(-c3cccs3)[nH]c2c1,–,inactive: 1.1%
COc1cc(CNc2ccccc2SC)cc(OC)c1OC,–,inactive: -24.6%
CCOC(=O)c1cc(-c2ccc(F)cc2)n(CC(=O)NCc2cccnc2)c1C,–,inactive: -9.77%
COc1ccc(-c2nc3c4ccccc4ccn3c2Cc2cccc(F)c2)cc1OC,"inconclusive: 15.8 µM [inhibitor, single point]",–
Cn1nnc(NC(=S)NC(=O)c2ccco2)n1,"inconclusive: 7.94 µM [inhibitor, partial curve]",–
O=C(NC1CCCC1)C(c1ccc(Cl)cc1)N(Cc1ccc(F)cc1)C(=O)CCl (stereo not given),–,inactive: 7.05%
CCOC(=O)C1=CCN(S(C)(=O)=O)C1c1ccc(C)cc1 (stereo not given),"inconclusive: 2.82 µM [inhibitor, full curve, poor fit]",–
Cc1nc(-c2ccccc2)nc2sc(C(=O)c3ccc(F)cc3)c(N)c12,–,inactive: -28.4%
CCCn1c(=O)c2c(ncn2C)n(CCC)c1=O,"inconclusive: 6.31 µM [inhibitor, single point]",–
O=C(NCC1CCCO1)c1ccc(CS(=O)(=O)Cc2ccc(F)cc2)o1 (stereo not given),–,inactive: -2.52%
N#CC1=C(N)Oc2c(ccc3cccnc23)C1c1ccccc1 (stereo not given),"inconclusive: 25.1 µM [inhibitor, single point]",–
CC(C)(C)c1ccc(OCCC(=O)OCC(=O)NC(=O)NC2CCCC2)cc1,"inconclusive: 17.8 µM [inhibitor, single point]",–
CN(C(=O)Nc1ccc(Cl)cc1Cl)[C@H]1c2cc(Br)ccc2OC[C@H]1CO,"inconclusive: 12.6 µM [inhibitor, partial curve, poor fit]",–
C(=C\c1ccnc2ccccc12)/c1ccc(-[n+]2cc[n+](-c3ccc(/C=C/c4ccnc5ccccc45)cc3)cc2)cc1,"inconclusive: 2.82 µM [inhibitor, full curve]",–
CC(C)(C)OC(=O)C[C@H]1C/C=C\C[C@H](CC(=O)NCCO)C(=O)NC[C@H](c2ccccc2)OC1=O,–,inactive: 8.53%

SMILES,Potency,"activity, negative = inhibition"
CCCS(=O)(=O)c1nc(S(=O)(=O)c2ccc(C)cc2)c(NCCN2CCOCC2)s1,"inconclusive: 31.6 µM [inhibitor, single point]",–
CC(=O)Nc1cc2c(cc1C(=O)c1ccccc1)OCCO2,"inconclusive: 0.1 µM [inhibitor, full curve, poor fit]",–
O=C(COc1ccccc1[N+](=O)[O-])Nc1ccc(NC(=O)c2cc3ccccc3o2)cc1,"inconclusive: 12.6 µM [inhibitor, partial curve, poor fit]",–
CC(C)(C)c1cc(Cl)c(O)c(NC(=S)NC(=O)c2cccnc2)c1,"inconclusive: 12.6 µM [inhibitor, partial curve, poor fit]",–
O=C(C(=O)c1cc(Br)ccc1O)c1cc(Br)ccc1O,active: 6.31 µM,–
C=CCn1c(N)c(C(=O)OCC(C)C)c2nc3ccccc3nc21,"inconclusive: 11.2 µM [inhibitor, single point]",–
CC(=O)Nc1ccc(S(=O)(=O)NCCc2csc3nc(-c4ccc(Cl)cc4)nn23)cc1,–,inactive: 0%
Cc1cc(NS(=O)(=O)c2ccc(NC(=O)COc3ccccc3C(C)C)cc2)no1,"inconclusive: 5.62 µM [inhibitor, single point]",–
CCCN(Cc1nnc(-c2cccs2)o1)C(=O)CN1C(=O)NC2(CCCCC2)C1=O,–,inactive: -1.22%
COC(=O)Cn1c(CCS(=O)(=O)c2ccc(C)cc2)nc2ccccc21,"inconclusive: 35.5 µM [inhibitor, single point] and inconclusive: 10 µM [inhibitor, partial curve]",–
CC(C)c1ccc(/C=C2\SC(=O)N(CC(=O)NC3C=CS(=O)(=O)C3)C2=O)cc1 (stereo not given),–,inactive: 21.9%
Cc1ccc2nc(NC(=O)c3ccco3)sc2c1,"inconclusive: 35.5 µM [inhibitor, single point]",–
COC(=O)Cc1c(C)nc2nc(NCc3ccccc3OC)[nH]n2c1=O,"inconclusive: 0.112 µM [inhibitor, full curve, poor fit]",–
CC(C)Cc1ccc(C(C)C(N)=Nc2ccc(O)cc2)cc1 (stereo not given),"inconclusive: 15.8 µM [inhibitor, single point]",–
CCOc1ccc(OCC)c(NC(=O)c2cnn(-c3ccc(F)cc3)c2-n2cccc2)c1,–,inactive: -5.23%
CC1(C(=O)NCCC(F)(F)F)Cc2c(-c3ccccc3)ccnc2O1 (stereo not given),–,inactive: 15.6%
CCCN1CCN(c2nnc(-n3cccc3C(=O)Nc3ccccc3C(F)(F)F)s2)CC1,"inconclusive: 20 µM [inhibitor, single point]",–
O=C1ON=C(c2ccc(Cl)cc2)/C1=C/c1ccc(O)cc1,"inconclusive: 35.5 µM [inhibitor, single point]",–
Cc1cccc(N2C(=O)CSC23C(=O)N(C)c2ccccc23)c1 (stereo not given),–,inactive: 9.33%
COc1ccc(CCNC(=O)/C=C/c2cc(OC)c(OC)c(OC)c2)cc1OC,–,inactive: 12.3%
CN=C1c2c(-c3ccccc3)c3cc(OC)ccc3n2CCN1C,–,inactive: -8.23%
Cc1cccc(C(=O)NCCc2nc3ccccc3n2CCC(C)C)c1,"inconclusive: 14.1 µM [inhibitor, partial curve, poor fit]",–

SMILES,Potency,"activity, negative = inhibition"
CSc1ccc(C2c3c(-c4ccccc4O)n[nH]c3C(=O)N2Cc2ccncc2)cc1 (stereo not given),"inconclusive: 31.6 µM [inhibitor, single point]",–
C=CCn1c(O)c(C2=c3ccccc3=NC2=O)sc1=Nc1ccc(O)cc1,"inconclusive: 14.1 µM [inhibitor, partial curve, poor fit]",–
CCC(=NCCc1c(C)[nH]c2ccc(OC(F)(F)F)cc12)C1=C(O)CC(c2ccccc2)CC1=O (stereo not given),"inconclusive: 0.112 µM [inhibitor, full curve, poor fit]",–
Cc1cccc(C)c1NC(=O)c1nc(S(=O)(=O)Cc2ccccc2F)ncc1Cl,"inconclusive: 5.01 µM [inhibitor, full curve, poor fit]",–
CC(=O)Nc1ccc(-c2csc(Nc3cc(C)ccn3)n2)cc1,"inconclusive: 12.6 µM [inhibitor, partial curve]",–
CCCCn1cc2c(c1-c1ccc(Br)cc1)c(=O)n(C)c(=O)n2C,"inconclusive: 2 µM [inhibitor, full curve, poor fit]",–
O=C(Oc1ccc(F)cc1C(=O)/C=C/c1cccs1)c1cccc([N+](=O)[O-])c1,"inconclusive: 35.5 µM [inhibitor, partial curve, poor fit]",–
Cc1ccc(NC(=O)NCCN2CCCCC2)cc1C,–,inactive: 26.7%
O=C(Nc1ccccc1)OC1CCC2CC1CCC2OC(=O)Nc1ccccc1 (stereo not given),"inconclusive: 22.4 µM [inhibitor, single point]",–
CC(C)CC(=O)N1CC=CC[C@@H](c2ccc(Cl)cc2)N(Cc2ccc(Cl)cc2)C(=O)[C@@H]1Cc1ccccc1,"inconclusive: 17.8 µM [inhibitor, partial curve, poor fit]",–
C=CCNC1=C(Cl)C(=O)c2ccccc2C1=O,"inconclusive: 10 µM [inhibitor, partial curve, poor fit]",–
CC1(C)C(C=C(Cl)Cl)C1C(=O)Nc1ccc([N+](=O)[O-])cc1 (stereo not given),"inconclusive: 35.5 µM [inhibitor, single point]",–
COc1ccc([C@H]2CC(=O)C=C(c3ccccc3-c3ccccc3)C2)cc1,"inconclusive: 35.5 µM [inhibitor, partial curve, poor fit]",–
N#C/C(=N\Nc1c(Cl)cccc1Cl)C(=O)NN,"inconclusive: 22.4 µM [inhibitor, single point]",–
Cc1ccc(-n2nc(C)c3c2C(Br)C(C)(C)CC3=O)nc1 (stereo not given),"inconclusive: 22.4 µM [inhibitor, single point]",–
Cn1c(=O)c2c(ncn2CC(=O)OCC(=O)Nc2ccccc2Cl)n(C)c1=O,"inconclusive: 6.31 µM [inhibitor, single point]",–
COc1ccc(C2OC3=C(Nc4cc(C)c(C)cc4N3)C2=O)cc1 (stereo not given),"inconclusive: 35.5 µM [inhibitor, single point]",–
CN1CCN(c2nc(NCCOC34CC5CC(CC(C5)C3)C4)nc(OCC(F)(F)F)n2)CC1,–,inactive: 13.3%
CC1CCN(C(=O)C(C)c2ccc([N+](=O)[O-])cc2)CC1 (stereo not given),"inconclusive: 5.62 µM [inhibitor, single point]",–
CCOC(=O)c1cnc2c(C)cc(C)cc2c1NCCN1CCOCC1,–,inactive: -3.16%
CC(C)C[C@@H](COc1ccccc1)N1CCN(CCc2ccccc2)CCC1=O,"inconclusive: 35.5 µM [inhibitor, single point]",–
